Results are given in words; binding and its absence hold for the method and conditions named. For some of these results: In cells and extracts the contact can be indirect. Some results given as binding are weak or reduced against the parent protein; the word gives no strength. Sequences can lack the tags named with a protein.
How the values were obtained:
[1] = molecular target: T1, HSI2‐GFP (35S:HSI2‐GFP) for co-immunoprecipitation (Arabidopsis thaliana) (UniProt Q8W4L5); assay: co-IP; total protein of agroinfiltrated tobacco leaves (50 mM Tris-HCl pH 7.5, 150 mM NaCl, 2 mM EDTA, 10% glycerol, 1% Triton X-100); anti-GFP mAb-magnetic beads overnight at 4°C; immunoblot with anti-myc
T1 sequence: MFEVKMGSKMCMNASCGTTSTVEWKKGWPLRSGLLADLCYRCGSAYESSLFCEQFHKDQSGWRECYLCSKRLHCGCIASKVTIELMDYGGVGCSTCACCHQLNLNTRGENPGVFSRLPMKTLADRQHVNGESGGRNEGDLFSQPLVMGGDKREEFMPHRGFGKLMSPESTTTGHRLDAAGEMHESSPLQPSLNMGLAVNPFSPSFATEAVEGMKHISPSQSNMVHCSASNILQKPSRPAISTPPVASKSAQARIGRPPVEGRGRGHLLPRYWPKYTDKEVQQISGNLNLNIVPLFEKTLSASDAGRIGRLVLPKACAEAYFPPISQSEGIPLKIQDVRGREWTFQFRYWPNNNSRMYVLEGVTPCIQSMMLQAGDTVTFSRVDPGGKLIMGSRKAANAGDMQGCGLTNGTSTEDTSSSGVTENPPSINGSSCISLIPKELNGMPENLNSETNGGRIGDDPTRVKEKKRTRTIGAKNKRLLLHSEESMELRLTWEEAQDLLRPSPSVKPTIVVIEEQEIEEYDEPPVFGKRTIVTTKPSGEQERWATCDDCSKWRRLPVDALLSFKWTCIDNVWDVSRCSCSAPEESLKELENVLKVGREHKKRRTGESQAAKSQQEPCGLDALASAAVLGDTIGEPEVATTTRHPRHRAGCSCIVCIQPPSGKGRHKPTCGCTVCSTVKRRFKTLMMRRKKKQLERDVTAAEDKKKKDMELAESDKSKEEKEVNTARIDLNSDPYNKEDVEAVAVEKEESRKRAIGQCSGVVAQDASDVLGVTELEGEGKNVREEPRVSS

[2] = molecular target: T2, HSL1‐GFP (35S:HSL1‐GFP) for co-immunoprecipitation (Arabidopsis thaliana) (UniProt Q5CCK4); assay: as above
T2 sequence: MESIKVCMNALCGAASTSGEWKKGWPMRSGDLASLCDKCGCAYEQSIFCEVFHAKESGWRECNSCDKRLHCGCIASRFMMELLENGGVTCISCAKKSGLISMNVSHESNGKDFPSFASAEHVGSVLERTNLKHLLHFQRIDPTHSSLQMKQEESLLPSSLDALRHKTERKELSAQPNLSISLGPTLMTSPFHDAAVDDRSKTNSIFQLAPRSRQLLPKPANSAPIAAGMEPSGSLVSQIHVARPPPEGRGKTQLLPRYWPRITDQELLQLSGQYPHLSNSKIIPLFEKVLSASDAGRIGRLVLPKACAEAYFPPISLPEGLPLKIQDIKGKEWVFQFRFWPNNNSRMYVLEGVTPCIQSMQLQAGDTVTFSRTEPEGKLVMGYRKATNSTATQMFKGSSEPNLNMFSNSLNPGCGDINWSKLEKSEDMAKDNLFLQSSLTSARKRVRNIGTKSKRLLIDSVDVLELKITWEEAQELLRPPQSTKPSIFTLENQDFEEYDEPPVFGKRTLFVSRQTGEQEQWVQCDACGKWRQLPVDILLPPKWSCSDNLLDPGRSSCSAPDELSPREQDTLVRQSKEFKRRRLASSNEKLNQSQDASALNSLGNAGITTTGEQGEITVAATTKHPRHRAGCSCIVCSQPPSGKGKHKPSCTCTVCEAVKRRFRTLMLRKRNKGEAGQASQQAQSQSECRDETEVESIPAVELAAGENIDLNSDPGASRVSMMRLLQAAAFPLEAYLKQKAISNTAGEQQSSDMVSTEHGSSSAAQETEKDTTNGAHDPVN

[3] = molecular target: T3, HSL1, full length, yeast two-hybrid fusion (Arabidopsis thaliana) (UniProt Q5CCK4); assay: two-hybrid; Matchmaker GAL4-based two-hybrid system 3, pGADT7 and pGBKT7, yeast AH109; growth on minimal medium -Leu/-Trp/-His/-Ade
T3 sequence: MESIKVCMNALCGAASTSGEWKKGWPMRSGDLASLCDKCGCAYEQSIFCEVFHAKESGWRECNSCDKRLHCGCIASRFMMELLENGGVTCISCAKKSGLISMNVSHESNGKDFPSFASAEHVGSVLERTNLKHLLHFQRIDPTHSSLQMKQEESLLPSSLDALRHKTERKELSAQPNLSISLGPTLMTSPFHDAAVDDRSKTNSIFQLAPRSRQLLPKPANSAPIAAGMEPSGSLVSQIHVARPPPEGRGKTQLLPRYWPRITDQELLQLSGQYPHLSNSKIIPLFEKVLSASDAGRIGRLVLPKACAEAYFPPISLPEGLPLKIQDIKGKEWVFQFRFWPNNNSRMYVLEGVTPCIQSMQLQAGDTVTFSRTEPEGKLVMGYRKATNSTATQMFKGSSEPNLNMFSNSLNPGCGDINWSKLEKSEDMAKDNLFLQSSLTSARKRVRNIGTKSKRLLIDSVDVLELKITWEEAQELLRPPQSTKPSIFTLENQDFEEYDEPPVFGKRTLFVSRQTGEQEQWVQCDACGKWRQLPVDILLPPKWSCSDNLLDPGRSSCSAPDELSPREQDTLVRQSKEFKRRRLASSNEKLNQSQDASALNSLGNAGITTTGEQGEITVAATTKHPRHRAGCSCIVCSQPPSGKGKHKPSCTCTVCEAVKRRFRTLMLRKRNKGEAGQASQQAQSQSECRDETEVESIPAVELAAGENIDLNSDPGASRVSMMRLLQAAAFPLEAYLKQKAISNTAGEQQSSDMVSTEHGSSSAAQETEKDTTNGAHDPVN

[4] = molecular target: T4, HSI2, full length, yeast two-hybrid fusion (Arabidopsis thaliana) (UniProt Q8W4L5); assay: as above
T4 sequence: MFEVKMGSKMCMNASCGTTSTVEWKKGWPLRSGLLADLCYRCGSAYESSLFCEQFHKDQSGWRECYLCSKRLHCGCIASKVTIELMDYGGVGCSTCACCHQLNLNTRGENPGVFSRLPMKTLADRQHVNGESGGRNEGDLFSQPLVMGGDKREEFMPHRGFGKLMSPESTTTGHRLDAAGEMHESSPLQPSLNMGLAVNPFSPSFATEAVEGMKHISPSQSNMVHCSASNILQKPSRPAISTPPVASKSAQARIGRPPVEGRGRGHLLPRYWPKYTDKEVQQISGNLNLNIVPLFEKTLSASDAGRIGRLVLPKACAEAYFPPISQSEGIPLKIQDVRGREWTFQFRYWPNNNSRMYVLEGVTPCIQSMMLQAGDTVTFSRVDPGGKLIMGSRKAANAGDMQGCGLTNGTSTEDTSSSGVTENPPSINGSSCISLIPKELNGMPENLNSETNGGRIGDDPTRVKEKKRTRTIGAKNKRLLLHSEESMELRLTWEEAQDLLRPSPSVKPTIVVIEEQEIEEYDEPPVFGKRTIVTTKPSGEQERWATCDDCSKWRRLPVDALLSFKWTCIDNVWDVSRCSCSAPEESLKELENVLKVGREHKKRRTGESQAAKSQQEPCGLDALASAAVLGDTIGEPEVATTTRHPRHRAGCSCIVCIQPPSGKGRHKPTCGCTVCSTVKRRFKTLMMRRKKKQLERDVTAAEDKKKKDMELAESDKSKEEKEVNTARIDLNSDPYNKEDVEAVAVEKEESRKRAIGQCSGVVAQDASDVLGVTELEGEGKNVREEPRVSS

B1: CURLY LEAF (CLF) for co-immunoprecipitation (protein, UniProt P93831 1-902)
chain: MASEASPSSSATRSEPPKDSPAEERGPASKEVSEVIESLKKKLAADRCISIKKRIDENKKNLFAITQSFMRSSMERGGSCKDGSDLLVKRQRDSPGMKSGIDESNNNRYVEDGPASSGMVQGSSVPVKISLRPIKMPDIKRLSPYTTWVFLDRNQRMTEDQSVVGRRRIYYDQTGGEALICSDSEEEAIDDEEEKRDFLEPEDYIIRMTLEQLGLSDSVLAELASFLSRSTSEIKARHGVLMKEKEVSESGDNQAESSLLNKDMEGALDSFDNLFCRRCLVFDCRLHGCSQDLIFPAEKPAPWCPPVDENLTCGANCYKTLLKSGRFPGYGTIEGKTGTSSDGAGTKTTPTKFSSKLNGRKPKTFPSESASSNEKCALETSDSENGLQQDTNSDKVSSSPKVKGSGRRVGRKRNKNRVAERVPRKTQKRQKKTEASDSDSIASGSCSPSDAKHKDNEDATSSSQKHVKSGNSGKSRKNGTPAEVSNNSVKDDVPVCQSNEVASELDAPGSDESLRKEEFMGETVSRGRLATNKLWRPLEKSLFDKGVEIFGMNSCLIARNLLSGFKSCWEVFQYMTCSENKASFFGGDGLNPDGSSKFDINGNMVNNQVRRRSRFLRRRGKVRRLKYTWKSAAYHSIRKRITEKKDQPCRQFNPCNCKIACGKECPCLLNGTCCEKYCGCPKSCKNRFRGCHCAKSQCRSRQCPCFAADRECDPDVCRNCWVIGGDGSLGVPSQRGDNYECRNMKLLLKQQQRVLLGISDVSGWGAFLKNSVSKHEYLGEYTGELISHKEADKRGKIYDRENCSFLFNLNDQFVLDAYRKGDKLKFANHSPEPNCYAKVIMVAGDHRVGIFAKERILAGEELFYDYRYEPDRAPAWAKKPEAPGSKKDENVTPSVGRPKKLA
With B1 the binding [1] was “binds” and the binding [2] was “binds”.

B2: HSI2, full length, yeast two-hybrid fusion (protein, UniProt Q8W4L5 1-790)
chain: MFEVKMGSKMCMNASCGTTSTVEWKKGWPLRSGLLADLCYRCGSAYESSLFCEQFHKDQSGWRECYLCSKRLHCGCIASKVTIELMDYGGVGCSTCACCHQLNLNTRGENPGVFSRLPMKTLADRQHVNGESGGRNEGDLFSQPLVMGGDKREEFMPHRGFGKLMSPESTTTGHRLDAAGEMHESSPLQPSLNMGLAVNPFSPSFATEAVEGMKHISPSQSNMVHCSASNILQKPSRPAISTPPVASKSAQARIGRPPVEGRGRGHLLPRYWPKYTDKEVQQISGNLNLNIVPLFEKTLSASDAGRIGRLVLPKACAEAYFPPISQSEGIPLKIQDVRGREWTFQFRYWPNNNSRMYVLEGVTPCIQSMMLQAGDTVTFSRVDPGGKLIMGSRKAANAGDMQGCGLTNGTSTEDTSSSGVTENPPSINGSSCISLIPKELNGMPENLNSETNGGRIGDDPTRVKEKKRTRTIGAKNKRLLLHSEESMELRLTWEEAQDLLRPSPSVKPTIVVIEEQEIEEYDEPPVFGKRTIVTTKPSGEQERWATCDDCSKWRRLPVDALLSFKWTCIDNVWDVSRCSCSAPEESLKELENVLKVGREHKKRRTGESQAAKSQQEPCGLDALASAAVLGDTIGEPEVATTTRHPRHRAGCSCIVCIQPPSGKGRHKPTCGCTVCSTVKRRFKTLMMRRKKKQLERDVTAAEDKKKKDMELAESDKSKEEKEVNTARIDLNSDPYNKEDVEAVAVEKEESRKRAIGQCSGVVAQDASDVLGVTELEGEGKNVREEPRVSS
In the case of B2, the binding [3] is reported as “binds” and the binding [4] is reported as “binds”.
